Data from a compilation of properties of binary mixtures (doi:10.1016/j.molliq.2014.09.055).
The densities may have been worked out from excess volumes.

Assay: xn = mol fraction of the nth substance listed
Details: 101 kPa

CCOS(=O)(=O)[O-].CC[n+]1ccn(C)c1 + CC(=O)O
x2 = 0
Details	mass density [kg/m3]
293.15 K	1240.3
298.15 K	1236.9
303.15 K	1233.5

CCOS(=O)(=O)[O-].CC[n+]1ccn(C)c1 + CCC(=O)O
x2 = 0
Details	mass density [kg/m3]
293.15 K	1240.3
298.15 K	1236.9

CCC(=O)O + CCOS(=O)(=O)[O-].CC[n+]1ccn(C)c1
mass density [kg/m3]
Details	293.15 K	298.15 K	303.15 K	308.15 K	313.15 K
x1 = 0.0818	–	1229.7	1226.3	1222.9	1219.4
x1 = 0.1678	1224.7	1221.2	1217.7	1214.2	1210.7
x1 = 0.2655	1213.7	–	1206.7	–	1199.6
x1 = 0.3539	1202.2	1198.6	1195	–	1187.9
x1 = 0.4224	1192.1	1188.4	1184.8	1181.2	1177.6
x1 = 0.5516	1168.9	1165.1	1161.4	1157.6	1153.9
x1 = 0.6556	1145.6	1141.8	1137.9	1134	1130.2
x1 = 0.7707	1112.6	1108.6	1104.5	1100.4	1096.4
x1 = 0.8774	1070.1	1065.7	1061.3	1056.9	–
x1 = 0.9405	1035.4	1030.6	1025.8	–	1016.2
x1 = 1	993.3	987.9	982.5	977.1	971.8

CC(=O)O + CCOS(=O)(=O)[O-].CC[n+]1ccn(C)c1
mass density [kg/m3]
Details	293.15 K	298.15 K	303.15 K	308.15 K	313.15 K
x1 = 0.0978	–	–	1228.4	1225	–
x1 = 0.1993	–	1225.7	1222.2	1218.7	1215.2
x1 = 0.308	1221.4	1217.9	1214.3	1210.8	1207.2
x1 = 0.4031	1212.9	–	1205.6	–	–
x1 = 0.4737	1205.4	1201.7	1198.1	1194.4	1190.7
x1 = 0.5975	1189	1185.2	1181.4	1177.6	–
x1 = 0.701	1171	1167	1163	1159.1	1155.1
x1 = 0.8057	–	–	–	1133.8	1129.6
x1 = 0.8973	1115.3	1110.7	–	1101.4	1096.8
x1 = 0.9512	–	1082.3	1077.3	1072.3	1067.2
x1 = 1	1049.8	–	1038.5	1032.8	1027.2
